# Laboratory results as given in the supplement of paper PMC8728848.
# Some of the results follow.
# Tests used:
# Assay in all cases: glycan array binding signal (z-score within array); higher = stronger binding
# Conditions in all cases: glycan notation: IUPAC condensed, linker removed
# [1] = biological target: Neu5Gc(a2-8)Neu5Gc(a2-3)Gal(b1-4)GlcNAc(b1-3)Gal(b1-4)GlcNAc
# In short: (§1)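 The binding signal is a Z-score computed within each array and averaged over linkers. Arrays of the same protein sequence at different concentrations or buffers were also averaged together. Data originate from 3228 arrays in the Consortium for Functional Glycomics database, kept only where the protein sequence was available.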
# [2] = biological target: Neu5Gc(a2-8)Neu5Gc(a2-6)Gal(b1-4)GlcNAc
# In short: as §1
# [3] = biological target: Neu5Gc(b2-6)Gal(b1-4)GlcNAc
# In short: as §1
binder,measurement,setting,value
CpGal16 (Clavelina picta) (protein) MAKMITNYVGKRIECIMVATDMMSTVFSLASATGDLPFYINFRQRENSIVMNTRVHGKWQYEKSQSSGGMNFYEPFRLVVEVRPSVFKVTVSTMGEEDGITFNLQYSQITIKPDEIVAMHLGYCNLRSELLVTDL,glycan array binding signal (z-score),[1],-0.447
same,glycan array binding signal (z-score),[2],-0.317
same,glycan array binding signal (z-score),[3],-0.263
